The values below come from the RNAGym collection of RNA variant scans (doi:10.1093/nar/gkz1192).

To fix the notation:
B1: CPEB3 Ribozyme (parent)
chain: UAACAGGGGGCCACAGCAGAAGCGUUCACGUCGCAGCCCCUGUCAGAUUCUGGUGAAUCUGCGAAUUCUGCUGUAUAUCUC

The source gives no read counts; variants with many changes may rest on few reads.

This data set covers variants of B1. Put plainly: self-cleavage, relative activity (ratio to wild type); higher = more cleavage; in vitro, sequencing. An outline of the steps:
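Barcoded CPEB3 ribozyme mutants, produced by rounds of error-prone PCR, self-cleaved while being transcribed with T7 RNA polymerase for 5 hours at 37°C and during a subsequent 15 min DNase I step before EDTA was added. Sequencing of template-switched cDNA on Illumina gave cleaved and total reads, and DNA sequencing assigned barcodes to variants. Each variant's relative activity is its cleaved/total read fraction divided by the unmutated ribozyme's fraction, averaged across three batches. A variant needed a minimum of 5 reads.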
Consider UAACAGGGGGCCACAGCAGAAGCGUUCAUGUCGCAGCCCCUGUCAGAUUCUGGUGAAUCUGCGUUUCCUGCUGGAUAUCUC [C29U A64U A65U U67C U74G], for which the self-cleavage worked out at 0.15.

UAACAGGGGGCCACAGCAGAAGCGUUCAUGUCGCAGCCCCUGUCAGAUUCUGGUGAGUCUGCGAAUUCUGCUGUUUAUCUC [C29U A57G A75U]: the self-cleavage amounted to 0.45.

Turning to UAACAGGGGGCCACAGCAGAAGCGUUCAUGUCGCAGCCCCUGUCAGAUUCUGGUGAAUAUGCGAAUUCCGCUGUAUAUCUC [C29U C59A U69C], the self-cleavage was 0.07.

As for UAACAGGGGGCCACAGCAGAAGCGUUCAUGUCGCAGCCCCUUUCAGAUUCUGGUGAAUCUGCGAAUUCUGCCGUAUAUCUC [C29U G42U U72C], the self-cleavage was 0.17.

As for UAACAGGGGGCCACAGCAGAAGCGUUCAUGUUGCAGCCCCUGACAGAUUCUGGUGAAUCUGCGAAUUCUGCUGUAUAUCUC [C29U C32U U43A], the self-cleavage was 0.07.

Turning to UAACAGGGGGCCACAGCAGAAGCGUUCAUGACGCAGCCCCUGUCAGAUUCUGGCGAAUCUGCGAAUCCAGCUGUAUAUCUC [C29U U31A U54C U67C U69A], the self-cleavage came to 0.09.

Turning to UAACAGGGGGCCACAGCAGAAGCGUUCAUGUCGCAGCCACUGUCACAUUCUGGUGAAUCUGCGAAUUCUGCUGUAUGUCUC [C29U C39A G46C A77G], the self-cleavage came to 0.19.

UAACAGGGGGCCACAGCAGAAGCGUUCAUGCCGCAGCCCCUGUCAGAUUCCGGUGAAUCUGCCUAUUCUGCUGUAUAUCUC [C29U U31C U51C G63C A64U]: the self-cleavage was 0.13.

As to UAACAGGGGGCCACAGCAGAAGCGUUCAUGUCGCAGCCCCUGUCAGAUUCUGGUGAGUCUGCGAAUUCCGCUGUAUAUCUC [C29U A57G U69C], the self-cleavage was 0.19.

UAACAGGGGGCCACAGCAGAAGCGUUCAUGUCGCAGCCUCUGUCAGAUUCUGGUGAAUCUGCGAAUUCUGCUGUAUGUCUC [C29U C39U A77G]: the self-cleavage worked out at 0.17.

As to UAACAGGGGGCCACAGCAGAAGCGUUCAUGUCGCAGCCCCUGUCAGAUUCUGGUGAAUCUGCGGAUUCUGCAGUAUAUCUC [C29U A64G U72A], the self-cleavage came out at 0.26.

For the variant UAACAGGGGGCCACAGCAGAAGCGUUCAUGCCGCUGCCCCUGUCAGAUUCUGGUGAAUCUGCGAAUUCUGCUGUAAAUCUC [C29U U31C A35U U76A], the self-cleavage is 0.08.

Turning to UAACAGGGGGCCACAGCAGAAGCGUUCAUGUCGCAGCCCCUGUCAGAUUCUGGUGAAUCUGCGAUUUCUGCCGUAUAUCUC [C29U A65U U72C], the self-cleavage was 0.17.

Consider UAACAGGGGGCCACAGCAGAAGCGUUCAUGUCGCAGCCCCUGUCAGAUUCUGGUGAAUCUGUGAAUUCAGCUGUAUAUCCC [C29U C62U U69A U80C], for which the self-cleavage is 0.11.

On to UAACAGGGGGCCACAGCAGAAGCGUUCAUGUCACAGCUCCUGUCAGAUUCUGGUGAAUCAGCGAAUUCUGCUGUAUAUCUC [C29U G33A C38U U60A], for which the self-cleavage is 0.06.

Consider UAACAGGGGGCCACAGCAGAAGCGUUCAUGUCGCAGCCCCUGUCAAAUUCUGGUGAAUCUGCGAAUCCUGCUGUAUAUCUC [C29U G46A U67C], for which the self-cleavage stood at 0.14.

With UAACAGGGGGCCACAGCAGAAGCGUUCAUGUCGCAGCCCCAGUCAGAUUCUGGUGAGUCUGCGAAUUCUGCUGUAUAUCUC [C29U U41A A57G], the self-cleavage came to 0.15.

For the variant UAACAGGGGGCCACAGCAGAAGCGUUCAUGUCUCGGCCCCUGACAGGUUCUGGUGAAUCUGCGAAUUCUGCUGUAUAUCCC [C29U G33U A35G U43A A47G U80C], the self-cleavage is 0.1.

On to UAACAGGGGGCCACAGCAGAAGCGUUCAUGACGCAGCCCCAGUCAGAUUCUGGUGAAUCUGCGAAUUCUGCUGUAUAUCUC [C29U U31A U41A], for which the self-cleavage came to 0.15.

For UAACAGGGGGCCACAGCAGAAGCGUUCAUGUCGCAGCCCCUGUCAGAUUCUGGUGAGUCAGCGAAUUCUGCUGUAUAUCUC [C29U A57G U60A], the self-cleavage came out at 0.17.

Turning to UAACAGGGGGCCACAGCAGAAGCGUUCAUGUCGCAGCCCAUGUCAGAUUCUGGUGAAUCAGCGAGUUCUGCUGUAUAUCAC [C29U C40A U60A A65G U80A], the self-cleavage amounted to 0.08.

Turning to UAACAGGGGGCCACAGCAGAAGCGUUCAUGACGCAGCCCCUGUCAGAUUCUGGUGAAUCUGCGAAUCCUGCUGUAUAUCUC [C29U U31A U67C], the self-cleavage stood at 0.11.

In the case of UAACAGGGGGCCACAGCAGAAGCGUUCAUGUCGCAGCCCCUGUCAGAUUCUGGUUAAUCUGCGGAUUCUGCUGUAGAUCUC [C29U G55U A64G U76G], the self-cleavage was determined as 0.13.

For the variant UAACAGGGGGCCACAGCAGAAGCGUUCAUGACGCAGCCCCAGUCAGAUUCUGGUGGAUCUGCGAAUUCUGCUGUAUAUCUC [C29U U31A U41A A56G], the self-cleavage was determined as 0.1.

As to UAACAGGGGGCCACAGCAGAAGCGUUCAUGACGCAGCCCCCGUCAGAUUCUGGUGAAUCUGAGAAUUCUGCUGUAUAUCUC [C29U U31A U41C C62A], the self-cleavage worked out at 0.19.

UAACAGGGGGCCACAGCAGAAGCGUUCAUGUCUCUGCCCCUGUCAGAUUCUGGUGAAUCUGCGAAUUCUGCUGUAUAUCUC [C29U G33U A35U]: the self-cleavage stood at 0.08.

As for UAACAGGGGGCCACAGCAGAAGCGUUCAUGUCGCAGCCCCUGUCAGAUUCUGGUGAAUCUGCGAAUUCUGCUUUAUAUCCC [C29U G73U U80C], the self-cleavage was found to be 0.95.

For the variant UAACAGGGGGCCACAGCAGAAGCGUUCAUGUCGCAGCCCCUGUCAGAUUCUGGUGAAUCUGCGGAUUCUGCUGGAUAUCUC [C29U A64G U74G], the self-cleavage came to 0.68.

Consider UAACAGGGGGCCACAGCAGAAGCGUUCAUGUCGCAGCCCCUGUCAGAUUCUGGUGAGUCUGCGAAUUCUGCGGUAUAUCUC [C29U A57G U72G], for which the self-cleavage stood at 0.38.

As for UAACAGGGGGCCACAGCAGAAGCGUUCAUGUCGCAGCCCCUGUCAGAUUCUGGUGAGUCUGCGAAUUUUGCUGUAUAUCUC [C29U A57G C68U], the self-cleavage was determined as 0.2.

UAACAGGGGGCCACAGCAGAAGCGUUCAUGUCGCAGCCCCUGUCAGAUUUUGAUGAAUCUGCGAUUUCUGCUGUAUAUCUC [C29U C50U G53A A65U]: the self-cleavage is 0.12.

On to UAACAGGGGGCCACAGCAGAAGCGUUCAUGACGCAGCCCCAGUCAGAUUCGGGUGAAUCUGCGAAUUCUGCUGUAUUUCUC [C29U U31A U41A U51G A77U], for which the self-cleavage was 0.2.

UAACAGGGGGCCACAGCAGAAGCGUUCAUGUCACAGCCCCUGUCAGAUACAGGUGAAUCUGCGGAUUCUGCUGUAUAUCUC [C29U G33A U49A U51A A64G]: the self-cleavage turned out to be 0.24.

UAACAGGGGGCCACAGCAGAAGCGUUCAUGUCGCAGCCCCUGUCAGAUUCUGGUGUAUCUACGAAUUCUGCUGUAUAUCUC [C29U A56U G61A]: the self-cleavage came out at 0.11.
